Source: the BET-seq Pho4 binding data (Le et al. 2018)
Some of the results follow. These are noisy estimates, calculated here from bound and input reads.

biological target: T1, Pho4 (S. cerevisiae) (UniProt P07270); experiment: relative binding free energy (BET-seq); higher = weaker binding; details: reference: library average
T1 sequence: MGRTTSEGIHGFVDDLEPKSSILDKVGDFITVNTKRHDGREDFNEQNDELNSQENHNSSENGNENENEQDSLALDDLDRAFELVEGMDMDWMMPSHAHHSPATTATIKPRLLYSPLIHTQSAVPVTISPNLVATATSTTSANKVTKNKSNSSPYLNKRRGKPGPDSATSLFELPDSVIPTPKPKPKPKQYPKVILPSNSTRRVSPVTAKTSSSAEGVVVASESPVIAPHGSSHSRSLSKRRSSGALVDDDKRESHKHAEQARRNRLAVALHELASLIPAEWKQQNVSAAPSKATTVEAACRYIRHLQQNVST

Sequence	relative binding free energy [kcal/mol]
GTTGGCACGTGTTCGA	-0.08
TATCACACGTGTGGGA	0.06
AACATCACGTGTTGGG	0.13
GGTCGCACGTGGTTAG	-0.07
GTCCGCACGTGTGTGG	-0.12
TTGTGCACGTGCAGGC	0.03
AAGTCCACGTGGTGTT	-0.03
TATGTCACGTGGTTAT	0.01
GGTTACACGTGGAAGA	0.11
ATATACACGTGAGAGG	0.13
TTTTGCACGTGTAAGC	0.2
CTTGGCACGTGAGGGT	0.07
GGGTACACGTGTGTAG	0.04
GAGGGCACGTGCGGAA	-0.14
CGGTGCACGTGGGGCC	-0.17
GAGGGCACGTGAATTG	0.19
GTGGTCACGTGGCTGA	0.15
ACTAGCACGTGAGTGT	0.18
TTTGGCACGTGATCTT	-0.01
ATCTGCACGTGAAGGT	0.24
CTTATCACGTGGGCGT	0.06

Sequence	relative binding free energy [kcal/mol]
ATGGCCACGTGTGGTA	-0.18
ATGTACACGTGCTGTT	0
TAGGACACGTGATGTG	0.06
TGATTCACGTGATGGG	0.38
TGATGCACGTGGGATA	-0.13
TGGATCACGTGGTGCA	0.09
GTTTGCACGTGCCGGT	-0.09
AGATACACGTGGAGTT	0.13
AGGGTCACGTGCTAGT	0.09
CGTCTCACGTGGTTAG	0.23
TGTTACACGTGGACGG	0.14
AGATTCACGTGGCGTG	0.14
TTGAGCACGTGGGGGA	-0.13
TAAGGCACGTGTAGGC	-0.1
GTGTGCACGTGGCTGG	-0.09
TAGGCCACGTGGTGTG	-0.11
TATAGCACGTGTATTT	0
TATTACACGTGCGGGG	0.09
AGTAGCACGTGTAAAG	-0.01
GGGTGCACGTGATCGT	0.22
AAGAACACGTGGGAAG	0.07

Sequence	relative binding free energy [kcal/mol]
GTAGTCACGTGAGATT	0.33
GTGCACACGTGCGGTG	0.03
TGGTGCACGTGAGTCG	0.21
GGGCTCACGTGGTTCT	0.25
TTTCACACGTGTAATG	0.18
GTTAACACGTGGGTGG	-0.13
GATTTCACGTGTTTGC	0.53
ATTGACACGTGAGCGG	0.09
GGGGTCACGTGATATG	0.22
CGTGGCACGTGTGCCT	-0.03
TGGCACACGTGATTGT	0.18
TCTGGCACGTGGGCGT	-0.29
TCTGTCACGTGAGTAT	0.16
AATCACACGTGGTGGT	0
GGTACCACGTGGGCTG	-0.14
TAGGTCACGTGTAGCA	0.31
GGGAACACGTGAAGAT	0.39
TGATTCACGTGGGTAG	0.18
TCTGACACGTGTAGGT	0.1
TTATTCACGTGGATGG	0.33
AGTGGCACGTGTTATC	0.03
